Data on 23 compounds can be found in ChEMBL document CHEMBL4888484, “Replenishing the malaria drug discovery pipeline: Screening and hit evaluation of the MMV Hit Generation Library 1 (HGL1) against asexual blood stage Plasmodium falciparum ,using a nano luciferase reporter read-out” (2022).

Among all 150,000 compounds or so, about 540 (0.36%) showed an effect of 50% or more. This is one part of the list.

The test system of the assay is Plasmodium falciparum. Nature of the assay: Primary screen in NF54 nanoGlo assay, in single point, at 2uM, 72h; a lower Z score goes with more inhibition. It is filed as functional, Erythrocyte. Particulars: timepoint 72 hour.
In the case of `CC(C)NC(=O)[C@@H]1C[C@@H](NCc2cccc3ccccc23)CN1C(C)C`, the “% Inhibition” value is given as -10% and the Z score came to 1.26.

On to `COc1cccc2c1OCc1cn(nn1)[C@H]1CN(C(=O)c3cn(C)c4ccccc34)C[C@H]1CC(=O)NCCN(C)C2=O`, for which the “% Inhibition” value is -18% and the Z score is listed as 2.24.

`Oc1cc(C(F)(F)F)nc(CNc2ccc(Cl)c(Cl)c2)n1`: the “% Inhibition” value is reported as 6% and the Z score is recorded as -1.09.

`CN(C)C(=O)NCCNS(=O)(=O)C[C@H]1CC2(CCC2)CO1`: the “% Inhibition” value was 2% and the Z score is -0.45.

`Nc1c(C(=O)NCCc2ccccc2)sc(=S)n1C1CC1`: the “% Inhibition” value is 4% and the Z score is reported as -0.46.

`O=C(c1ccc(S(=O)(=O)N2CCOCC2)cc1)N1CCC[C@H]1c1cccs1`: the “% Inhibition” value is given as -6% and the Z score was 0.59.

On to `Cn1cccc1C(=O)OCC(C)(C)C1OCC(C)(C)CO1`, for which the “% Inhibition” value is listed as -4% and the Z score amounted to 0.41.

Regarding `COc1cccc2nc(NC(=O)NCC[C@H]3CC(=O)N(C)C3)sc12`, the “% Inhibition” value was -6% and the Z score was 0.94.

Regarding `O=S(=O)(C1CC1)N1CCCC[C@H](c2ccc(F)cc2)C1`, the “% Inhibition” value is reported as -11% and the Z score stood at 1.66.

Turning to `CCOC(=O)c1[nH]c(C2CCN(CC(=O)OC)CC2)nc1C`, the “% Inhibition” value is reported as -2% and the Z score worked out at 0.22.

`Cc1ncc(C(=O)NC2CN(Cc3ccccc3)CCC2CO)s1` (stereo unspecified): the “% Inhibition” value is reported as -4% and the Z score was found to be 0.7.

On to `Cc1nccn1CCCCNS(=O)(=O)c1cc(Cl)cnc1N`, for which the “% Inhibition” value amounted to 1% and the Z score is -0.11.

With `CC1(C)C2CN(C(=O)Nc3cccc(OCCn4cccn4)c3)CC21` (stereo unspecified), the “% Inhibition” value is 2% and the Z score was -0.34.

`CC(NCc1nc2ccc(Br)cc2o1)C1CCOC1` (stereo unspecified): the “% Inhibition” value worked out at 0% and the Z score is on record as -0.04.

Take `O=C(NC1=NN2C(=NC(c3ccccc3)=C[C@H]2c2ccc(F)cc2)N1)c1ccccc1`: the “% Inhibition” value is given as -11% and the Z score is 1.69.

Take `O=C(Cn1c(=O)[nH]c2c(-c3ccccc3)c[nH]c2c1=O)NCc1ccccn1`: the “% Inhibition” value is recorded as -7% and the Z score came to 1.

On to `O=C(NCc1ccc(OCc2cccnc2)cc1)c1ccc(F)cc1`, for which the “% Inhibition” value is -1% and the Z score is listed as 0.22.

As to `Cc1nn(C)c(C)c1-c1ccnc(NCCN2CCCCC2=O)n1`, the “% Inhibition” value was -4% and the Z score is given as 0.59.

In the case of `CCCC1(CCC)NC(=O)N(Cc2csc(N(CC)C(C)=O)n2)C1=O`, the “% Inhibition” value was -22% and the Z score came out at 2.04.

For `CCN(Cc1nnnn1C)c1ccccc1Cl`, the “% Inhibition” value amounted to 1% and the Z score is given as -0.16.

Regarding `O=S(=O)(c1ccc(Cl)s1)N1CCC(c2ccsc2)CC1`, the “% Inhibition” value was -14% and the Z score is given as 1.98.

As to `CC(C)[C@H](NC(=O)COc1cccc(-n2cnnc2)c1)c1nc2ccccc2n1C`, the “% Inhibition” value is -6% and the Z score is given as 0.74.

`CC(C)NC(=O)c1nc(S(C)(=O)=O)ncc1Cl`: the “% Inhibition” value is 8% and the Z score is -1.19.
